Data from patent US20090123474A1, “COMBINATION OF ANGIOPOIETIN-2 ANTAGONIST AND OF VEGF-A, KDR AND/OR FLTL ANTAGONIST FOR TREATING CANCER” (ASTRAZENECA AB, priority 2005, published 2009).

Target: T1, Angiopoietin-2 binding to Tie-2 (Homo sapiens, UniProt O15123)
T1 construct: purchased R&D Systems, Inc. BT623 (Angiopoietin-2, biotinylated); 313-TI-100 (Tie-2/Fc)
T1 sequence (O15123 19-496): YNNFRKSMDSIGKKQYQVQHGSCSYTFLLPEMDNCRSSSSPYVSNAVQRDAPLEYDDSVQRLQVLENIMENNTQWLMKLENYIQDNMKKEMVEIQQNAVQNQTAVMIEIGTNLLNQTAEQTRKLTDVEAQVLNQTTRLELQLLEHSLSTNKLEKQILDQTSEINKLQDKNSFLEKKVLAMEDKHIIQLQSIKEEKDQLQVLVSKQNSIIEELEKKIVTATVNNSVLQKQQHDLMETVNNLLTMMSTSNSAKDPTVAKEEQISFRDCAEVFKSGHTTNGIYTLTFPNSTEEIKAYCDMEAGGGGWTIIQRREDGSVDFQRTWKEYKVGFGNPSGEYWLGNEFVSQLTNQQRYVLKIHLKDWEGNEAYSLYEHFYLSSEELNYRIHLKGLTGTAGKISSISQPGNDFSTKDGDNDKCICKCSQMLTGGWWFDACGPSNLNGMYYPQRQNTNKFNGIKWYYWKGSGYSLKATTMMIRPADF
Assay: Competitive binding assay (modified ELISA): inhibition of Angiopoietin-2 binding to Tie-2
Protocol: As discussed above, Angiopoietin-2 exerts its biological effect by binding to the Tie-2 receptor. Monoclonal antibodies that inhibited Angiopoietin-2/Tie-2 binding were identified by a competitive binding assay using a modified ELISA. The mAb used were products of micro-purification from 50 ml of exhaustive supernatants of the hybridoma pools that were specific for Angiopoietin-2 (see above). 96-well Nunc Immplates™ were coated with 100 μl of recombinant human Tie-2/Fc fusion protein (R&D Systems, Inc., Cat. No. 313-TI-100) at 4 μg/ml by incubating overnight at 4° C. The plates were washed four times using Phosphate Buffer Saline (PBS) with a Skan™ Washer 300 station (SKATRON). […]
Biotinylated recombinant human Angiopoietin-2 (R&D Systems, Inc. Cat. No. […] Bound biotinylated Angiopoietin-2 was then detected using 100 μl/well of Streptavidin-HRP conjugate at 1:200 by incubating at room temperature for half an hour. After washing twice, the bound Streptavidin was detected by HRP substrate (R&D Systems, Cat. No. DY998). […] The light absorbance at 450 nm was determined by a Spectramax Plus reader. […]
To quantitate the inhibitory activities of the mAb on Angiopoietin-2 binding to Tie-2, the titer was determined for purified mAbs from the top candidates using a competitive binding assay. […] The maximal inhibition (efficacy) and IC50 (potency) were calculated by the software.

B1: mAb 5.103.1: fully human anti-Angiopoietin-2 monoclonal antibody, variable regions SEQ ID NO: 37-40 (antibody, listed as Homo Sapiens, listed as Homo sapiens, V domains shown)
VH: QVQLVQSGAEVKKPGASVKVSCKASGYTFTGYYLYWVPQAPGQGLEWMGWISPNSGGTNYAQKFQGRVTMTRDTSISTAYMELSRLRSDDTAVYYCARDQVIAVAGPFDYWAQGTLVTVSSA
VL: ETVMTQSPATLSVSPGERVTLSCRASQSVISSLAWYQQKPGQAPRLLIYGASTRATGIPARFSGSGSGTEFTLTISSLQSEDFAVYYCQQYNNWWTFGQGTKVEIKR
B1 was tested, and the “EC50” value (potency, competitive binding of Angiopoietin-2 to Tie-2, purified mAb) was 0.3643 µg/mL and the “Efficacy*” value (ratio of bound Angiopoietin-2 with mAb (30 μg/ml) versus without mAb) was 0.2317.
